Results from PubChem BioAssay AID1240 (Sanford-Burnham Center for Chemical Genomics, 2008).
Screen size: about 50,000 compounds; about 800 (1.6%) showed an effect of 50% or more. This is one part of the list.

The compounds below were run against Bcl-2-like protein 10 (Homo sapiens) (UniProt Q9HD36) (assay: Phenotype converters, Bcl-B/TR3 peptide binding displacement, primary biochemical FP (AID 1240;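 note: 0% = Bcl-B with tracer peptide and DMSO and 100% = tracer peptide lacking Bcl-B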)). Conditions: GST-Bcl-B / FITC-TR3 peptide fluorescence polarization; stronger effect = higher value; compound at 3.75 mg/L.
Sequence of UniProt Q9HD36 (Q9HD36 whole entry, looked up): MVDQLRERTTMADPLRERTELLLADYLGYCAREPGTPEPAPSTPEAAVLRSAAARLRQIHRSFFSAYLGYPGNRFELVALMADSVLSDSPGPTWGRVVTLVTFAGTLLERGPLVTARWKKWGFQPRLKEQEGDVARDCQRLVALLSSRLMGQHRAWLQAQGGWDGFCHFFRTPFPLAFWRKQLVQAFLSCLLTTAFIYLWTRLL

In order of rising displacement:
1. COc1cc(/C=C(\C#N)c2nc3ccccc3[nH]2)cc(Cl)c1O  -102%
2. CC(=O)NN1C(=O)/C(=C\c2ccc(I)o2)SC1=S  -38.1%
3. Cc1c(Cl)cccc1NC(=O)/C(C#N)=C/c1cccc(O)c1  -12.3%
4. CCOc1ccc(C(=O)Nc2cc(C(F)(F)F)ccc2Cl)cc1Br  -10.7%
5. O=C(N/N=C\c1ccccc1C(F)(F)F)c1n[nH]c2c1CCCC2  -9.9%
6. COc1ccc(CCNC(=O)c2ccc(Cl)cc2)cc1OC  -8.9%
7. CCOC(=O)C1=C(C)N=c2s/c(=C\c3cc(OC)c(OC)cc3[N+](=O)[O-])c(=O)n2C1c1cccc(OC)c1 (stereo unspecified)  -8.4%
8. CCC(=O)Oc1ccc2c(C)cc(=O)oc2c1C  -7.8%
9. CCCCCC(=O)NNS(=O)(=O)c1ccc(Cl)cc1  -7.8%
10. CCOC(=O)c1csc(NC(=O)c2ccc(S(=O)(=O)N3CCCC3)cc2)n1  -6.9%
11. COc1ccccc1CNC(=O)CN(c1ccc(Oc2ccccc2)cc1)S(C)(=O)=O  -6.1%
12. COc1cc(CN2CCN(S(C)(=O)=O)CC2)cc(OC)c1O  -5.1%
13. Cc1nn(CC(=O)Nc2ccccc2)c(=O)c2ccccc12  -5.1%
14. CC(C)NNC(=O)c1nc(-c2ccccc2)cc(-c2ccccc2)n1  -4.9%
15. C=CCOc1ccc(/C=C2\SC(=Nc3ccccc3)NC2=O)cc1OC  -4.9%
16. Cc1cc(C)nc(SCC(=O)Nc2nncs2)n1  -4.7%
17. CCOc1c(Br)cc(C2C3=C(CC(C)(C)CC3=O)OC3=C2C(=O)CC(C)(C)C3)cc1OC  -4.2%
18. CNC(=O)c1c(-c2ccccc2Cl)noc1C  -4.1%
19. O=C(c1ccc(N(Cc2ccc([N+](=O)[O-])cc2)Cc2ccc([N+](=O)[O-])cc2)cc1)C(F)(F)F  -4.1%
20. Cc1ccc(CNC(=O)C(=O)NCc2ccco2)cc1  -3.9%
21. CN(C)/C=C1\N=C(c2ccccc2F)OC1=O  -3.9%
22. O=C(Nc1nc2ccc(Br)cc2s1)c1cccs1  -3.7%
23. O=C(Nc1ccc(F)cc1F)c1cccc(F)c1  -3.5%
24. Cc1ccc(C2/C(=C(\O)c3ccc([N+](=O)[O-])cc3)C(=O)C(=O)N2CCCCCC(=O)O)cc1 (stereo unspecified)  -3.5%
25. OCc1nc2ccccc2n1CCOc1ccccc1  -3.5%
26. Cc1ccc(N=CC2=C(O)CC(C)(C)CC2=O)nc1  -3.3%
27. O=C(/C=C/c1cccc2ccccc12)c1ccc(NC(=O)c2cccs2)cc1  -2.2%
28. CCCNC(=O)c1sc2ccccc2c1Cl  -1.5%
29. O=C(COc1ccccc1)Nc1cccc(NC(=O)c2ccc(Cl)cc2Cl)c1  -0.3%
30. COc1ccc(/C=N/Nc2nc(Nc3ccccc3)nc(N3CCOCC3)n2)cc1Br  0.3%
31. CCCCCCCNC1CC(=O)N(c2ccc(Br)cc2)C1=O (stereo unspecified)  1.7%
32. COCCCNC(=O)c1ccccc1C  2.1%
33. O=C(NCc1cccnc1)c1cccc(S(=O)(=O)N2CCCCC2)c1  2.2%
34. COc1cccc(-n2c(/C=C/c3c(C)n(C)c4ccccc34)nc3ccccc3c2=O)c1  2.4%
35. Cc1ccccc1N1CC(C(=O)OCC(=O)c2ccc(Br)cc2)CC1=O (stereo unspecified)  2.7%
36. O=C1c2ccccc2/C(=N/Nc2ccc([N+](=O)[O-])cc2)C1c1cc(Br)ccc1[N+](=O)[O-] (stereo unspecified)  2.9%
37. CNC(=O)c1ccc(N(C)S(=O)(=O)c2ccccc2)cc1  3%
38. Cc1nc(N)nc(-c2ccccc2O)n1  3%
39. CCC(=O)CC(c1ccccc1)C1C(=O)NC(=O)NC1=O (stereo unspecified)  3.4%
40. CC(C)(C)CC(C)(C)NC(=O)CSc1nc2ccccc2o1  3.4%
41. Cc1nnc(Nc2ccc3c(c2)nc(C)n3Cc2ccccc2)c2ccccc12  3.5%
42. COC(=O)c1cc(-c2cccc([N+](=O)[O-])c2)nc2ccccc12  4.3%
43. Cc1cc(Cl)ccc1NC(=O)C(=O)N/N=C/c1ccccc1F  4.5%
44. Cc1ccc(S(=O)(=O)c2ccc(Sc3ccc(Cl)cc3)cc2)cc1  4.7%
45. O=C(O)c1ccc(N2C(=O)C3C4c5ccccc5C(c5ccccc54)C3C2=O)cc1Cl (stereo unspecified)  4.7%
46. CN(C)CCNC(=O)c1ccc(Br)cc1  4.9%
47. Cc1ccc(C)c(NS(=O)(=O)c2ccc3c(c2)C(=NO)c2cc(S(=O)(=O)Nc4cc(C)ccc4C)ccc2-3)c1  5.4%
48. O=C1N/C(=N/N=C/c2ccccc2O)SC1Cc1cc(Cl)ccc1Cl (stereo unspecified)  5.6%
49. CC(C)(C)NCCCCOc1cc(Cl)ccc1Cl  5.8%
50. COc1cccc(C2Nc3ccccc3NC3=C2C(=O)CC(c2cccs2)C3)c1OC (stereo unspecified)  5.9%
51. CCOc1ccc2nc(SCC(=O)Nc3cc(Cl)ccc3C)sc2c1  7.2%
52. Cc1onc(-c2ccccc2Cl)c1C(=O)N1CCc2ccccc2C1  8%
53. O=C(/C=C/c1ccc(Cl)cc1)Nc1ccc(Cl)cn1  8.5%
54. Cc1cc(C)cc(CC(C(=O)Nc2ccc(I)cc2)C(C)C(=O)O)c1 (stereo unspecified)  8.7%
55. CC(C)(C)c1ccc(S(=O)(=O)Nc2nccs2)cc1  9.4%
56. COc1cc(NC(=O)c2ccc(OC)c(OC)c2)ccc1NC(=O)c1ccco1  10.5%
57. O=C(NCc1ccncc1)c1ccc(I)cc1  10.7%
58. COC(=O)c1c(C)oc2ccc(OC(=O)c3ccc(OC)c(OC)c3)cc12  10.8%
59. COC(=O)CN(c1ccc(C)cc1)S(=O)(=O)c1ccc(SC)cc1  10.9%
60. O=C(NCCN1CCNCC1)C(=O)Nc1ccc(Br)cc1  10.9%
61. Cc1ccc(/C(O)=C2\C(=O)C(=O)N(c3ccc(O)cc3)C2c2ccc(F)cc2)cc1 (stereo unspecified)  11.1%
62. COc1ccc(NS(=O)(=O)c2ccc(OC)c(OC)c2)cc1  11.8%
63. CC(=O)c1cccc(NC(=O)CN2CCOCC2)c1  12.1%
64. Cc1ccc(S(=O)(=O)NN2C(=O)/C(=C/c3cccc4ccccc34)SC2=S)cc1  12.4%
65. Cc1ccc(OCC(=O)Nc2ccc3oc(-c4cccnc4)nc3c2)cc1C  12.6%
66. COc1ccc2oc(=O)c(C(N)=O)cc2c1  12.8%
67. O=C1/C(=C/C(Cl)=C/c2ccc([N+](=O)[O-])cc2)SC(=S)N1c1ccc(O)cc1  15.4%
68. Cc1ccc2c(c1)NC(c1ccc(F)cc1)C1=C(CC(C)(C)CC1=O)N2 (stereo unspecified)  17.8%
69. Clc1ccc(C=NN2CCN(Cc3ccccc3)CC2)c(Cl)c1  18.6%
70. O=C(N/N=C/C=C/c1ccccc1[N+](=O)[O-])c1cc(-c2ccccc2)n[nH]1  28%
71. Cc1cc(C(=O)O)ccc1-n1c(C)ccc1C  81.4%
